According to PubChem BioAssay (NCI):
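Test compounds were applied to cells in 96-well plates for 48 hours at 5 doses. GI50 = concentration required for 50% inhibition of growth. At the TGI there is no net growth.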

system: NCI-H322M lung; experiment: growth of human tumour cells (NCI), 48 h

Q: `CN1C(=O)c2c(c3c4ccccc4n(C)c3c3c2c2ccccc2n3C)C1=O` was tested. Which TGI did it give?
A: > 100 µM

Q: For `COC(=O)/C(=C1\OC(=O)C(c2ccc(Cl)cc2)=C1O)c1ccc(Cl)cc1`, which TGI is on record?
A: > 100 µM

Q: With `Cn1cnc([N+](=O)[O-])c1Sc1nnc(-c2ccc(Cl)cc2)n1C` as the compound, how does the TGI read?
A: > 100 µM

Q: Which GI50 does the source give for `COc1cc2cc(C(=O)Nc3ccccc3)c(N)nc2cc1OC` here?
A: > 100 µM

Q: What about the TGI of the same compound?
A: > 100 µM

Q: How did the GI50 turn out when `OCC1OC(n2cnc3cc(Cl)c(Cl)cc32)C(O)C1O` (centres undefined) was run?
A: 24.1 µM

Q: What about the TGI of the same compound?
A: > 90.6 µM

Q: `COc1ccc2cc(CNCCOCCOCCNCc3ccc4cc(OC)ccc4c3)ccc2c1` was tested. Which TGI did it give?
A: 2.02 µM

Q: With `COc1ccc2nc3c(nc2c1)C(C)(C)C=C3c1ccc(Br)cc1` as the compound, how does the TGI read?
A: > 100 µM
